From the BET-seq Pho4 binding data (Le et al. 2018)
The list shows a part of the results. These are noisy estimates, calculated here from bound and input reads.

Molecular target: T1, Pho4 (S. cerevisiae) (UniProt P07270)
T1 sequence: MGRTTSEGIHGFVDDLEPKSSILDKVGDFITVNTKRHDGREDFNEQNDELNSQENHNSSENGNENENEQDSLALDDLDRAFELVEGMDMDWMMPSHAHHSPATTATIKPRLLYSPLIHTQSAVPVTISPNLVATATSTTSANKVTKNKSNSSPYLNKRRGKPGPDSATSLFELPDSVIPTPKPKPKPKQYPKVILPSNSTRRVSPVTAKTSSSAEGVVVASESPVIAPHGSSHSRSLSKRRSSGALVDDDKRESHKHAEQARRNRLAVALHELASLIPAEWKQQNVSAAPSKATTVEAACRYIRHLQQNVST
Experiment: relative binding free energy (BET-seq); higher = weaker binding
Settings: reference: library average

Row | Sequence | relative binding free energy [kcal/mol]
1 | ACTTGCACGTGTATTT | 0.05
2 | TGGAGCACGTGTTTAC | 0.05
3 | TATGGCACGTGTAGCG | -0.1
4 | ATAGTCACGTGGCTGT | 0.03
5 | GCGAGCACGTGTTGTG | 0.04
6 | TGGGTCACGTGCTTTA | 0.12
7 | TATTTCACGTGACAGG | 0.32
8 | GAGTCCACGTGGTAGG | 0.11
9 | TGATTCACGTGGAGAA | 0.34
10 | GTTATCACGTGTGCCG | 0.34
11 | AGGGGCACGTGAGGGT | 0.14
12 | TATGTCACGTGATCGG | 0.26
13 | CTGGCCACGTGGGGTG | -0.21
14 | TGTAACACGTGGGGCT | -0.09
15 | ATTGCCACGTGGGGGC | -0.19
16 | GTTCTCACGTGTTAGA | 0.38
17 | GGAATCACGTGGTAGT | 0.25
18 | TAAGTCACGTGATGAG | 0.16
19 | TTACGCACGTGGGGTT | -0.24
20 | ATGTACACGTGAACGG | 0.31
21 | GTACACACGTGTGGTT | -0.01
22 | GTCTTCACGTGGTATA | 0.37
23 | GGTTTCACGTGAGGAT | 0.33
24 | GTGAACACGTGCAGTG | 0.08
25 | ATATACACGTGCGGGT | -0.08

Row | Sequence | relative binding free energy [kcal/mol]
26 | AATTGCACGTGTTAAA | 0.08
27 | AAGGGCACGTGTGGGC | -0.11
28 | CTAGGCACGTGGTGTG | -0.35
29 | AGGTACACGTGGGGGC | 0
30 | TACGTCACGTGCGTGT | -0.06
31 | AGGGCCACGTGTTTAT | -0.03
32 | GGAGACACGTGTGTTT | 0.07
33 | TGATTCACGTGTTTAG | 0.33
34 | TTGGGCACGTGACTTA | -0.03
35 | AGGGGCACGTGGGTTT | -0.24
36 | GAGTACACGTGCGGGT | 0.04
37 | TTAGTCACGTGGGCGC | -0.12
38 | TTGGACACGTGTCTTT | 0.1
39 | GGTGGCACGTGGCGGC | -0.19
40 | GCTGGCACGTGGTAGG | -0.01
41 | TTCTTCACGTGTTATC | 0.29
42 | CGTGGCACGTGAGGCA | 0.17
43 | TTATTCACGTGTTGCT | 0.23
44 | GGACTCACGTGGCGGG | 0.24
45 | GGGTTCACGTGTCGGC | 0.39
46 | GGTTACACGTGAGTGT | 0.35
47 | TAATTCACGTGGCAGG | 0.1
48 | GGCTTCACGTGCATGG | 0.37
49 | TAGTCCACGTGGTGGA | 0.02
50 | ATTTACACGTGGTTCG | -0.01

Row | Sequence | relative binding free energy [kcal/mol]
51 | AAGGGCACGTGCCGGT | -0.25
52 | TTATACACGTGCTTTA | -0.01
53 | TTCGGCACGTGGATTT | 0.11
54 | TGGGACACGTGCGCGG | -0.08
55 | AATTTCACGTGTCATG | 0.25
56 | CGTGACACGTGTGATG | -0.01
57 | TTGTTCACGTGGGAAT | 0.24
58 | TAGGACACGTGTCAGG | 0.04
59 | GATAGCACGTGTTTGA | -0.05
60 | AGTGTCACGTGCTTTA | -0.12
61 | TATTTCACGTGCTTGT | 0.14
62 | GGGAGCACGTGGGCAC | -0.11
63 | TGTCACACGTGGAGTT | -0.02
64 | TTACGCACGTGCGTGT | -0.13
65 | GGGTTCACGTGGGCTT | 0.27
66 | AGTATCACGTGGAAGG | 0.16
67 | TGCGACACGTGGGTGG | -0.19
68 | TTTGACACGTGGTTCA | -0.13
69 | GAGGTCACGTGCTGGG | 0.04
70 | TGCTTCACGTGTGATT | 0.28
71 | GGTTTCACGTGTTTTT | 0.42
72 | AGTTTCACGTGGGGGT | 0.19
73 | TTGAACACGTGCGGGG | 0.06
74 | AGTAGCACGTGGGAGA | -0.07
75 | TTATGCACGTGGCATT | -0.21

Row | Sequence | relative binding free energy [kcal/mol]
76 | AGGAACACGTGGCGTG | -0.09
77 | GGTGTCACGTGGTCAC | 0.08
78 | TTAGGCACGTGGCTCT | 0
79 | TAAAGCACGTGGTTTT | -0.12
80 | GTGATCACGTGCTTTG | 0.08
81 | TGCCGCACGTGGGGGC | -0.3
82 | GGGGGCACGTGAAGAT | 0.18
83 | TGGTGCACGTGGATTC | 0.14
84 | ACGGTCACGTGTATGT | 0.09
85 | TTTAGCACGTGATTGG | 0.03
86 | GGGATCACGTGGGAGA | 0.09
87 | ACGATCACGTGTGTTA | 0.26
88 | AATGGCACGTGTGGGT | 0
89 | CATTGCACGTGGGCTG | -0.08
90 | TTCGTCACGTGAGAAT | 0.51
91 | GGATGCACGTGGTCGA | -0.15
92 | AAGGACACGTGCGGTG | -0.07
93 | AGCAGCACGTGAAGGG | 0.18
94 | TGGAACACGTGTTTGT | -0.01
95 | TTACTCACGTGGGGCG | -0.07
96 | GGACGCACGTGGGTGC | -0.19
97 | GAGTGCACGTGGCATT | 0.04
98 | GTATGCACGTGGGAAT | -0.03
99 | GTAAACACGTGATAGG | 0.13
100 | GATAACACGTGTAGTT | 0.1

Row | Sequence | relative binding free energy [kcal/mol]
101 | GGCGTCACGTGTGGTC | 0.19
102 | TCCGTCACGTGGAGTT | 0.23
103 | CTCTTCACGTGTGAGG | 0.34
104 | AATTACACGTGTGCAT | 0.16
105 | ATGGACACGTGTCTGG | -0.03
106 | GTTATCACGTGTTTCT | 0.28
107 | GTCCTCACGTGGTTTT | 0.43
108 | CGGTGCACGTGTAATT | 0.09
109 | TGGGGCACGTGCGATA | -0.24
110 | TATAGCACGTGGTACT | -0.1
111 | AATTGCACGTGTCGGG | 0.03
112 | TAAATCACGTGTGGAT | 0.24
113 | AGATGCACGTGCGTTT | -0.04
114 | TGGAGCACGTGCATGT | -0.27
115 | TGTAGCACGTGCATTT | -0.1
116 | AGTGACACGTGGGGAT | -0.15
117 | GCGGGCACGTGAGGGG | 0.12
118 | AGCTGCACGTGTAGGT | -0.01
119 | TAATACACGTGTGAGG | 0.05
120 | TTATTCACGTGTACGT | 0.19
121 | TTGAGCACGTGGTAAT | 0.03
122 | GAGGCCACGTGGGTCT | -0.08
123 | GTTTTCACGTGTCGGA | 0.46
124 | CAGGTCACGTGTTTGA | 0.04
125 | GGGTACACGTGACTTT | 0.3

Row | Sequence | relative binding free energy [kcal/mol]
126 | TGCGTCACGTGCAGTG | 0.1
127 | AGTATCACGTGGCTGG | 0.03
128 | GGTAACACGTGAGGTA | 0.17
129 | CGGGTCACGTGCCGGG | -0.01
130 | TCTGACACGTGATGTG | 0.11
131 | GTTGTCACGTGGTTAG | 0.13
132 | AAGTTCACGTGCGTAT | 0.18
133 | TCTGTCACGTGTTAAT | 0.14
134 | TGGCCCACGTGTGTGT | -0.06
135 | TAATTCACGTGAGTCG | 0.46
136 | TTTGTCACGTGATTAG | 0.19
137 | AGACGCACGTGGGTAT | -0.26
138 | GAAGTCACGTGAAGAT | 0.42
139 | TTTTGCACGTGTCCGT | 0.03
140 | GGTTTCACGTGTTCTA | 0.41
141 | CGGGACACGTGGTGAA | -0.05
142 | TGTGCCACGTGGTAAT | -0.11
143 | GATAGCACGTGGGACG | -0.07
144 | TTAGTCACGTGTCATT | 0.08
145 | GTTTGCACGTGGATAG | 0.06
146 | GGTCCCACGTGGTTGT | -0.1
